These results are taken from patent US20240317847A1 (Bayer, published 2024).

The target of experiment [1] is T1, cynomolgus IL-11 (cynomolgus, UniProt P20808 22-199).
T1 sequence: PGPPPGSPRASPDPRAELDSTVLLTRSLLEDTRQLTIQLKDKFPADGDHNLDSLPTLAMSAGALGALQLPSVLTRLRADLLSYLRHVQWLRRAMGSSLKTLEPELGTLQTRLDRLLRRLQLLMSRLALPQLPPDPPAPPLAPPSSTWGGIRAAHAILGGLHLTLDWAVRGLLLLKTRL
The experiment can be described thus: cell-based or functional assay.

In experiment [2] the target is T2, murine IL-11 (mouse, UniProt P47873 22-199).
T2 sequence: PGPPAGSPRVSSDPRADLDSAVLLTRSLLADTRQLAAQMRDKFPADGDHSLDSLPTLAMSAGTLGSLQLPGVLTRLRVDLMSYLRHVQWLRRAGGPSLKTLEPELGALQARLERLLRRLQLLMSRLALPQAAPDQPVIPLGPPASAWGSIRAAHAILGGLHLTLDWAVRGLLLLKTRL
The experiment is described as follows: cell-based or functional assay.

For experiment [3], the target named is T3, human IL-11 (human, UniProt P20809 22-199).
T3 sequence: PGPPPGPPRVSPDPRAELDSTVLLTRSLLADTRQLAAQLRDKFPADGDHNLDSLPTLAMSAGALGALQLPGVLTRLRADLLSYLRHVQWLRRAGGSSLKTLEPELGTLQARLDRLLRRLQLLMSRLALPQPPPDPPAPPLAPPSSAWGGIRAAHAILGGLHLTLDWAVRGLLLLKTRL
The experiment is described as follows: cell-based or functional assay.

The target in experiment [4] is T4, rat IL-11 (rat, UniProt Q99MF5 22-199).
T4 sequence: T2 sequence with S50N, L84F, G94A, V137A, I138V
The experiment can be described thus: cell-based or functional assay.

Experiment [5] concerns the target T1, cynomolgus IL-11. The experiment is described as follows: SPR 37 C, antibody captured, IL-11 as analyte. As to the method: (§1) To assess the binding kinetics and affinity of anti-IL-11 antibodies as well as their species cross-reactivity profile, binding assays were conducted using surface plasmon resonance (SPR). Binding assays were performed on a Biacore T200 instrument or on a Biacore 8K+ instrument (Cytiva) at 37° C. using assay buffer HBS EP+, 300 mM NaCl, 1 mg/ml BSA, 0.05% NaN3. Antibodies were captured either via anti-human Fc IgGs (“Human antibody capture kit”, Order No. BR100839, Cytiva) or via anti-mouse Fc IgGs (“Mouse antibody capture kit, Order No. BR100383, Cytiva) covalently amine coupled to a Series S CM5 sensor chip (Cytiva) depending on the isotype. The amine coupling was carried out according to the manufacturer's instructions using 1-ethyl-3-(3-dimethylaminopropyl) carbodiimide hydrochloride (EDC), N-hydroxysuccinimide (NHS) and ethanolamine HCl, pH 8.5 (“Amine Coupling Kit” BR-1000-50, Cytiva.). Human, mouse, cynomolgus or rat IL-11 was used as analyte at several dilutions within the concentration range from 0.05-200 nM. For binding assays with only one concentration 200 nM IL-11 was used. The sensor surface was regenerated with glycine pH 1.7 after each antigen injection. Obtained sensorgrams were double referenced (subtraction of reference flow cell signal and buffer injection) and were fitted to a 1:1 Langmuir binding model to derive kinetic data using the Biacore T200 Evaluation software or the Biacore Insight software. If no value is reported, there was either no binding or very low binding and multiphasic binding behavior. Values below 1E-12 were considered to be below the dynamic range of the instrument and set to <1E-12.

Experiment [6] concerns the target T2, murine IL-11. The experiment can be described thus: SPR 37 C, antibody captured, IL-11 as analyte. As to the method: as §1
In experiment [7] the target is T3, human IL-11. The experiment is described as follows: SPR 37 C, antibody captured, IL-11 as analyte. The protocol:
as §1

Experiment [8] addresses T4, rat IL-11. The experiment is described as follows: SPR 37 C, antibody captured, IL-11 as analyte. The protocol: as §1
Experiment [9] addresses T2, murine IL-11. The experiment can be described thus: Di-complex ELISA, competitor murine IL11RA-Fc on coated IL-11. A general note: In an ELISA, binding on a coated surface is turned into a signal by an enzyme label.
In experiment [10] the target is T3, human IL-11. The experiment is described as above.
Experiment [11] deals with T5, human IL-11 (human, UniProt P20809 22-199).
T5 construct: Invigate recombinant protein; biotinylated when immobilized in the Di-complex ELISA; also called hIL11; hIL-11
T5 sequence: T3 sequence
The experiment is described as follows: Tri-complex ELISA, hIL-11 + mIL-11Ra-Fc + hgp130-Fc, inhibition of complex formation. As to the method:
In the Tri-complex ELISA format IL-11 antibodies are tested for their ability to inhibit the formation of a complex consisting of murine or human gp130-Fc fusion protein, with murine or human IL-11, and a murine IL11RA-Fc fusion protein. The assay format was adapted according to FIG. 18 (a, b), depending on whether murine or human IL-11 IgG antibodies were tested.
(§2) IgG converted antibodies were subjected to the experimental assay procedure described in Example 19 and IC50 [M], respectively efficacy (%) were calculated accordingly.

The target in experiment [12] is T6, murine IL-11 (mouse, UniProt P47873 22-199).
T6 construct: Invigate recombinant protein; biotinylated when immobilized in the Di-complex ELISA; also called mIL11; mIL-11
T6 sequence: T2 sequence
The experiment is described as follows: Tri-complex ELISA, mIL-11 + mIL-11Ra-Fc + mgp130-Fc, inhibition of complex formation. As to the method:
In a first step, 25 μl of goat anti human IgG (Sigma, #12136), diluted 1:1000 in coating buffer (Candor, #121125) was coated on the plate at 4° C. overnight. Next day, the plate was washed one time with 50 μl PBST and then blocked with 50 μl SmartBlock (Candor, #113125) for one hour at room temperature (RT). […] After three additional washes of the coated and blocked microtiter plate with PBS-T, 25 μl of each mixture were added and the assay plate was incubated for one hour at room temperature. After three additional washes, anti-mouse-gp130 biotinylated antibody (R&D, #BAF468) or anti-human gp130 biotinylated antibody (R&D, #BAF228), both 1:1000 in 10% SmartBlock PBS-T, was added and incubated for 1 hour at RT. After three additional washes, a Streptavidin-Peroxidase conjugate (Sigma, #S5512) 1:1000 in SmartBlock PBS-T was added and incubated for one hour at room temperature. After a final three washes, AmplexRed (Fisher Scientific, A12222), 1/1000 in PBS, 0,003% H₂O₂, was added as substrate and incubated for 15 min at RT in the dark. Then, the fluorescence was measured with a plate reader at 535/595 nm. Signals from dose responses were used to calculate IC50 values using GraphPad Prism software. Efficacy was calculated as [(signal measured at lowest antibody concentration−signal measured at the highest antibody concentration)×100] divided by (signal measured at lowest antibody concentration−signal measured in the absence of antibody at an IL11 concentration of 8.2E-11 [M]).
as §2

Substitutions are numbered along the chain they refer to.

B1: TPP-29536 (antibody, human IgG1, lambda)
heavy: EVQLLESGGGLVQPGGSLRLSCAASGFTFSSYGMHWVRQAPGKGLEWVAVISYDGSYKYYADSVKGRFTISRDNSKNTLYLQMNSLRAEDTAVYYCAAGVPDYWGQGTLVTVSSASTKGPSVFPLAPSSKSTSGGTAALGCLVKDYFPEPVTVSWNSGALTSGVHTFPAVLQSSGLYSLSSVVTVPSSSLGTQTYICNVNHKPSNTKVDKKVEPKSCDKTHTCPPCPAPPVAGPSVFLFPPKPKDTLMISRTPEVTCVVVGVSHEDPEVKFNWYVDGVEVHNAKTKPREEQYNSTYRVVSVLTVLHQDWLNGKEYKCKVSNKQLPSPIEKTISKAKGQPREPQVYTLPPSRDELTKNQVSLTCLVKGFYPSDIAVEWESNGQPENNYKTTPPVLDSDGSFFLYSKLTVDKSRWQQGNVFSCSVMHEALHNHYTQKSLSLSPGK
light: QSVLTQPPSASGTPGQRVTISCSGSSSNIGSDYDVHWYQQLPGTAPKLLIYSNEERPSGVPDRFSGSKSGTSASLAISGLRSEDEADYYCSAWDSSLSGPVFGGGTKLTVLGQPKAAPSVTLFPPSSEELQANKATLVCLISDFYPGAVTVAWKADSSPVKAGVETTTPSKQSNNKYAASSYLSLTPEQWKSHRSYSCQVTHEGSTVEKTVAPTECS
notes: hIgG-lambda-HS (human IgG1 with Fc-silencing mutations)
One may read the Kd as the free concentration of one partner at which half of the binding sites on the other are occupied at equilibrium, for simple one-to-one binding. The IC50 is the concentration that gives 50% inhibition. On to B1, for which the “RGA Efficacy (%)” value in experiment [1] is 89.7%; in [2] it was 97.2%; in experiment [3], 85.1%; in experiment [4], 90.9%. Besides, the “RGA IC50” value worked out at 1 nM in experiment [1], 1.4 nM in experiment [2], 1.2 nM in experiment [3] and 1.3 nM in experiment [4]. For the same molecule, the equilibrium dissociation constant (Kd) in experiment [5] was determined as 0.24 nM; in experiment [6], 0.13 nM; in experiment [7], 0.18 nM; in [8], 0.25 nM. For the same molecule, the “Efficacy (%)” value in experiment [9] stood at 42.2%; in [10], 37.6%. Besides, the figures for the IC50 in experiment [9] and in [10] were 0.55 nM and 0.88 nM, respectively.

B2: TPP-30001 (antibody, human IgG1, lambda)
heavy: QVQLVESGGGVVQPGRSLRLSCAASGFTFSHYDMHWVRQAPGKGLEWVAVISYEGSNKFYADSVKGRFTISRDNSKNTLYLQMNSLRAEDTAVYYCARTPGFHFDYWGQGTLVTVSSASTKGPSVFPLAPSSKSTSGGTAALGCLVKDYFPEPVTVSWNSGALTSGVHTFPAVLQSSGLYSLSSVVTVPSSSLGTQTYICNVNHKPSNTKVDKKVEPKSCDKTHTCPPCPAPPVAGPSVFLFPPKPKDTLMISRTPEVTCVVVGVSHEDPEVKFNWYVDGVEVHNAKTKPREEQYNSTYRVVSVLTVLHQDWLNGKEYKCKVSNKQLPSPIEKTISKAKGQPREPQVYTLPPSRDELTKNQVSLTCLVKGFYPSDIAVEWESNGQPENNYKTTPPVLDSDGSFFLYSKLTVDKSRWQQGNVFSCSVMHEALHNHYTQKSLSLSPGK
light: QSVLTQPPSASGTPGQRVTISCSGSSSNIGSNYVSWYQQLPGTAPKLLIYYDDLRPSGVPDRFSGSKSGTSASLAISGLRSEDEADYYCSAWDDSLSGVVFGGGTKLTVLGQPKAAPSVTLFPPSSEELQANKATLVCLISDFYPGAVTVAWKADSSPVKAGVETTTPSKQSNNKYAASSYLSLTPEQWKSHRSYSCQVTHEGSTVEKTVAPTECS
notes: hIgG1, Lambda (HS variant)
As for B2, the “RGA Efficacy (%)” value in [1] was 56.6%; in [2] it was 101%; in [3], 96.5%; in experiment [4] it was 98.9%. The “RGA IC50” value stood at 5.6 nM in [1], 0.93 nM in experiment [2], 1.3 nM in experiment [3] and 2.1 nM in experiment [4]. Also, the Kd in experiment [6] amounted to 0.055 nM; in experiment [7], 0.064 nM; in experiment [8], 1.1 nM. In addition, the “Efficacy (%)” value in [9] was found to be 10.1%; in [10] it was 5.2%.

B3: TPP-30003 (antibody, human IgG1, lambda)
heavy: B2 heavy with N57V
light: B2 light with S35N
notes: hIgG1, Lambda (HS variant)
Consider B3, for which the “Efficacy (%)” value in experiment [11] stood at 85.4%; in [12], 102%. In addition, the IC50 stood at 7.4 nM in experiment [11] and 0.1 nM in [12].

B4: TPP-30001 (antibody, human IgG1, lambda)
heavy: B2 heavy
light: B2 light
notes: hIgG1, Lambda (HS variant)
Consider B4, for which, in experiment [11], the “Efficacy (%)” value came to 81% and the IC50 came out at 11 nM. Besides, in [12], the “Efficacy (%)” value came out at 99.7% and the IC50 turned out to be 0.11 nM.

B5: TPP-30002 (antibody, human IgG1, lambda)
heavy: B2 heavy
light: B2 light with S35N
notes: hIgG1, Lambda (HS variant)
Regarding B5, in experiment [11], the “Efficacy (%)” value was found to be 86.2% and the IC50 worked out at 4.9 nM. Moreover, in [12], the “Efficacy (%)” value was 102% and the IC50 worked out at 0.073 nM.

B6: TPP-30000 (antibody, human IgG1, lambda)
heavy: B2 heavy with E54S, N57V, F102S
light: B2 light with S35N
notes: hIgG1, Lambda (HS variant)
For B6, the “Efficacy (%)” value turned out to be 86% in [11] and 98.8% in [12]. Further, the IC50 in experiment [11] was determined as 5.7 nM; in experiment [12] it was 0.12 nM.
